Test results: PMC6919601, “Identification of Plasmodium dipeptidyl aminopeptidase allosteric inhibitors by high throughput screening” (PLoS ONE, 2019)
The campaign covered roughly 110,000 compounds. About 230 (0.21%) showed an effect of 50% or more. Some of the results follow.

target: DPAP1 (Plasmodium falciparum, UniProt Q8IIJ9); experiment: primary screen, percent inhibition; read by cleavage of a fluorogenic dipeptide substrate; higher = more effect of the substance; set-up: species or system P. falciparum D10 trophozoite lysates; single well
Sequence (Q8IIJ9 whole entry, looked up): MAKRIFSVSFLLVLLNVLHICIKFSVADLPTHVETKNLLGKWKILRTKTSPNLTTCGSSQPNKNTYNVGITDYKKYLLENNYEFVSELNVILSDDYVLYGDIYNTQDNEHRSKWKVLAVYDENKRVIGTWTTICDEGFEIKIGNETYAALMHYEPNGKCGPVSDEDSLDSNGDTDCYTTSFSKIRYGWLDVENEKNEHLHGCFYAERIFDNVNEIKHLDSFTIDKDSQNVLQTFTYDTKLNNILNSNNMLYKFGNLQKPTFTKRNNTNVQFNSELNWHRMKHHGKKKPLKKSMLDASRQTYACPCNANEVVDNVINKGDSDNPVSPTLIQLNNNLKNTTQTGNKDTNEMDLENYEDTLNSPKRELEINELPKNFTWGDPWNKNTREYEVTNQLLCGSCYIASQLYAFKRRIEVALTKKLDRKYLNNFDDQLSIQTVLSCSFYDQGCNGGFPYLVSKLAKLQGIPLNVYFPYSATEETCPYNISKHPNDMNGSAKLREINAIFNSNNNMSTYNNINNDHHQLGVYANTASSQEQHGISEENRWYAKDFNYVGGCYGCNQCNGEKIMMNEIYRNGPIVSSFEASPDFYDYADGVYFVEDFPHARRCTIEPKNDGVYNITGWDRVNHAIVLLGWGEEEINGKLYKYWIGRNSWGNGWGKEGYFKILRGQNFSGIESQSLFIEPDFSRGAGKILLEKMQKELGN
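Note: 30 min substrate incubation versus DMSO and 10 µM JCP410 controls.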

| SMILES | % Inhibition @ 10 uM [%] |
| --- | --- |
| Cc1ccc(CN(C)CCc2ccccn2)cc1 | 3.47 |
| COc1ccc(Cl)cc1NC(=O)CSc1nc(C)cc(O)n1 | -0.511 |
| CCN(CC)CCN(CC)Cc1c(Cl)cccc1Cl | 0.0792 |
| Cc1nc2ccc(Br)cc2c(-c2ccccc2)c1C(=O)O | -4.32 |
| CC1CCCC(NC(=O)CN2CCCN(Cc3ccc(F)cc3Cl)C2=O)C1C (stereo not drawn) | 2.35 |
| c1nnnn1CCCN1CCOCC1 | 5.96 |
| CC1CCCCN1C(=O)c1cc(-c2cccc(Cl)c2)on1 (stereo not drawn) | -5.09 |
| O=C(CCCn1c2ccccc2c2cnnc(O)c21)NCCC1=CCCCC1 | -5.63 |
| CC(=O)NCCc1c(C(=O)O)[nH]c2ccc(OCc3ccccc3)cc12 | 6.43 |
| COc1cc(S(=O)(=O)N2CCN=C2c2ccccc2)ccc1Cl | -5.49 |
| CN1C(=O)C(=Cc2cn(CC(=O)NCC3CCCO3)c3ccccc23)C(=O)N(C)C1=O (stereo not drawn) | 2.17 |
| Cc1onc(-c2ccccc2)c1C(=O)NCc1cccnc1 | 1.28 |
| COCCNc1ncnc2c1cnn2C | 3.99 |
| COC(=O)C1=C(O)/C(=C\c2cccc3ccccc23)N=C1C | 5 |
| CCc1nnc(NC(=O)CSc2ccc(-c3ccncc3)nn2)s1 | 2.75 |
| COC(=O)c1cc2oc(C)cc2n1Cc1nc(-c2cccc(Br)c2)oc1C | -11.4 |
| CC1=C(C(=O)Nc2ccc(F)cc2F)C(c2ccc(N(C)C)cc2)C2=C(O)CCCC2=N1 (stereo not drawn) | -3.46 |
| COc1ccc(OC)c(/C=C2/C=C(c3ccc(C)cc3)OC2=O)c1 | -3.41 |
| COCCn1c(CCC(=O)O)ccc1-c1ccc(C)cc1 | -6.89 |
| CCn1c(SC)nc2sc3c(c2c1=O)CCCC3 | 3.01 |
| O=C(O)c1nccnc1C(=O)Nc1cccc2ccccc12 | -2.18 |
| COc1ccc(C2=N/C(=C\c3ccc(C)o3)C(=O)O2)cc1Br | 11.4 |
| CC(NC(=O)COc1ccc2ccccc2c1Br)c1ccccc1 (stereo not drawn) | -3.25 |
| COc1ccc(CN2CCN(Cc3cccnc3)CC2)cc1Br | -9.29 |
| O=c1c(Cl)c(N2CCCC2)cnn1-c1nc2ccccc2s1 | 9.59 |
| CCCCCNC(=O)c1ccc(Cl)cc1Cl | -0.294 |
| COc1ccc(-c2cn3nc(N4CCCC(C(=O)NCCc5ccc(Cl)cc5)C4)sc3n2)cc1 (stereo not drawn) | 1.97 |
| CCOC(=O)C1=CN(C)C=C(C(=O)OCC)C1c1cc(Br)c(O)c(OC)c1 | 1.86 |
| Cn1cnc2c1c(=O)n(Cc1ccccc1)c(=O)n2C | 1.29 |
| COc1ccc(C(=O)c2ccc(C)cc2)cc1 | 4.41 |
